These are yes or no findings as the source states them, for the method shown. Binding seen in cells or lysates may run through a third protein. Some binding calls cover weakened binding; strength is not graded here. Tags and fused reporters may be left off the sequences shown.
Assays:
[1] = biological target: T1, FRQ Δ604–646, V5H6-tagged (Neurospora crassa) (UniProt P19970); experiment: co-IP; V5H6-tagged FRQ (wild type or mutant) pulled down with V5 agarose from Neurospora lysate (cultures in the light, 25 °C); 50 mM Hepes pH 7.4, 137 mM NaCl, 10% glycerol, 0.4% NP-40; 4 °C, 2 h; Western blot with FRQ, FRH, WC-1 and WC-2 antibodies
T1 sequence: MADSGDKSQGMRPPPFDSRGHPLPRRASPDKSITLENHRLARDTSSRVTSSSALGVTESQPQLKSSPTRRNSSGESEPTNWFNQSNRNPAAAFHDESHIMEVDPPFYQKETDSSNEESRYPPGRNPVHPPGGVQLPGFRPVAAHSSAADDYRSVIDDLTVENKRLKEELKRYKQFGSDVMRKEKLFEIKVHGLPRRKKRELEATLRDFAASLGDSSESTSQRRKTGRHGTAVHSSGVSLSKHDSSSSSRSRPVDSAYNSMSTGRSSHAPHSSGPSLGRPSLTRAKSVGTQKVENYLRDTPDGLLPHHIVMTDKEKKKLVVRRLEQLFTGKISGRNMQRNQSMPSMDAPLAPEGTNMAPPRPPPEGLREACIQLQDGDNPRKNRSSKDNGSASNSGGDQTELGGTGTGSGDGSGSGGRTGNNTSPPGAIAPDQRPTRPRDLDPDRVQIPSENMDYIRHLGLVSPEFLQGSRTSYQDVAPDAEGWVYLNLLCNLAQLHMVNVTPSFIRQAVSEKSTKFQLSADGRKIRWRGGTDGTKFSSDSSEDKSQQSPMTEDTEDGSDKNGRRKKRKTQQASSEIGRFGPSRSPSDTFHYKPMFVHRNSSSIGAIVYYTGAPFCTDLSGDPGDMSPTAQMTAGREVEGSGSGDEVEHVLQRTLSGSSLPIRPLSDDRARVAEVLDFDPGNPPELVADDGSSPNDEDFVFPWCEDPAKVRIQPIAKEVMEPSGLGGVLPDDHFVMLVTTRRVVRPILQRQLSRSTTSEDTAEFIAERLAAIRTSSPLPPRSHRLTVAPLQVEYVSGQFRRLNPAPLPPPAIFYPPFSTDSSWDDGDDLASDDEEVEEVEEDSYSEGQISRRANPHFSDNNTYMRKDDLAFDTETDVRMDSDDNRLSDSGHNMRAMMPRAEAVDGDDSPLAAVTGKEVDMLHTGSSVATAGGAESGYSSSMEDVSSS

[2] = biological target: T2, FRQ E183A, E187A, V5H6-tagged (Neurospora crassa) (UniProt P19970); experiment: as above
T2 sequence: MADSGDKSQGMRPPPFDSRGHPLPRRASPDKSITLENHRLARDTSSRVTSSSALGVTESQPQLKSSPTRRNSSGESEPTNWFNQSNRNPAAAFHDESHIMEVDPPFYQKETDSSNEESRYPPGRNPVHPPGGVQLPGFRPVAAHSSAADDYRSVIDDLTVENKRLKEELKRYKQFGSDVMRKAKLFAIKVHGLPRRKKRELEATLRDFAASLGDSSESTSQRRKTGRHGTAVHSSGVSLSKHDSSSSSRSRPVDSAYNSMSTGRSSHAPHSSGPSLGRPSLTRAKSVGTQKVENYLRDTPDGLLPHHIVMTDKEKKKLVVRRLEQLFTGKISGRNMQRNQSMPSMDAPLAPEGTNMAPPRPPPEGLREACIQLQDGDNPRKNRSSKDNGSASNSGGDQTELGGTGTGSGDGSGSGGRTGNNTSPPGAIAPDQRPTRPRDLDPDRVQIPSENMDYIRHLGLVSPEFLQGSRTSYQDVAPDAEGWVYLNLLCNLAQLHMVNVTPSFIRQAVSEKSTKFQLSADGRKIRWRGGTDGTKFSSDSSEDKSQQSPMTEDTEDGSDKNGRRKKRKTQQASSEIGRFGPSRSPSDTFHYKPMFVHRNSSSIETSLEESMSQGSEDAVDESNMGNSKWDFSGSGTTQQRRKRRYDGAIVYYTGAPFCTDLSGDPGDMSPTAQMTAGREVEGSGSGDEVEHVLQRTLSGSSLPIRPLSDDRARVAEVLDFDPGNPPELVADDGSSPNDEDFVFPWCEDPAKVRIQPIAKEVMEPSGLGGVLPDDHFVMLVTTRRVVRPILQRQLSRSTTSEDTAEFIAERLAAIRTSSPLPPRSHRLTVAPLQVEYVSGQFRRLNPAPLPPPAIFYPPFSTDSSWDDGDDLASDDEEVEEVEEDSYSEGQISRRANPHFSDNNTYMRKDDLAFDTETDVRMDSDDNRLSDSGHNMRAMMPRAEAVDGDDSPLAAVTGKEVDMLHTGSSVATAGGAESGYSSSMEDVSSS

binding [1]: binds weakly | binding [2]: no binding
B1: White Collar-2 (WC-2) (protein, UniProt P78714 1-530)
chain: MSHGQPPPGSSMYGFGAMGMGSGMGSGMGSGMGTGMGTGMGTGMSASQMTSDPQDMMSLLDTSVFPGFDGMSMSLDVGDSMSNPFTPVSVPPPLPAGNAGPSHVGVCGGHGAPDQLFSPDDLIATSMSSAGPMIATPTTTTSGPSGGPSSGGGSTLTEFTKRRNWPAKVVEELQDWEHILDANGRIKHVSPSVEPLTGYKPPEIIDLFLRDLIHPDDVGVFTAELNEAIATGSQLRLFYRFRKKDGNWTIFETVGHAHIAAAKFAPNPQNQSPFCQAVFMMARPYPTKNAGLLDSFLEHKIENERLKRRIAELRREEQEEQEESHRTWRMSQEGRSDVTPSDDTATQMGMTPFYIPMNAQADVMMPPPSQPASSLNIALTRENLEGIAGSRPDSIREKMLRYEGNHADTIEMLTGLKYQEGERSHGITTGNASPTLIKGDAGIAIPLDRDPRTGEKKKKIKVAEEYVCTDCGTLDSPEWRKGPSGPKTLCNACGLRWAKKEKKKNANNNNNGGGIGGHNDIHTPMGDHMG
